{"source": "the supplement of paper PMC8728848", "binders": {"B1": {"name": "CML1 (Coprinopsis cinerea) (protein)", "chain": "MAIFHTGSELFIITRGPGKLTLLTWGGLNNLRSVIGAIPTENTGVTKWAVSFSHNYTRFSFIWEGQGEACYQIGNGLTRSPVGRSWSSSSTIHWGSSTVITEDVTSVVPGAVNRDKVTTAYALPDNL"}}, "test_in_all_cases": "glycan array binding signal (z-score within array); higher = stronger binding", "settings_in_all_cases": "glycan notation: IUPAC condensed, linker removed", "key": {"Fuc(a1-2)Gal(b1-4)Glc": {"biological_target": "Fuc(a1-2)Gal(b1-4)Glc", "outline": "(§1)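 The binding signal is a Z-score computed within each array. Data were drawn from 3228 arrays in the Consortium for Functional Glycomics database, restricted to those with a known protein sequence. Scores were averaged over arrays of the same protein sequence at different concentrations or buffers, and over linkers, and negative values can be taken as non-binding.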"}, "Fuc(a1-2)Gal(b1-4)Glc6S": {"biological_target": "Fuc(a1-2)Gal(b1-4)Glc6S", "outline": "as §1"}, "Fuc(a1-2)Gal(b1-4)GlcNAc": {"biological_target": "Fuc(a1-2)Gal(b1-4)GlcNAc", "outline": "as §1"}, "[1]": {"biological_target": "Fuc(a1-2)Gal(b1-4)GlcNAc(b1-2)Man", "outline": "as §1"}, "[2]": {"biological_target": "Fuc(a1-2)Gal(b1-4)GlcNAc(b1-2)Man(a1-3)[Fuc(a1-2)Gal(b1-4)GlcNAc(b1-2)Man(a1-6)]Man(b1-4)GlcNAc(b1-4)GlcNAc", "outline": "as §1"}, "[3]": {"biological_target": "Fuc(a1-2)Gal(b1-4)GlcNAc(b1-2)Man(a1-3)[Fuc(a1-2)Gal(b1-4)GlcNAc(b1-2)Man(a1-6)]Man(b1-4)GlcNAc(b1-4)[Fuc(a1-6)]GlcNAc", "outline": "as §1"}, "[4]": {"biological_target": "Fuc(a1-2)Gal(b1-4)GlcNAc(b1-2)[Fuc(a1-2)Gal(b1-4)GlcNAc(b1-4)]Man(a1-3)[Fuc(a1-2)Gal(b1-4)GlcNAc(b1-2)Man(a1-6)]Man(b1-4)GlcNAc(b1-4)GlcNAc", "outline": "as §1"}, "[5]": {"biological_target": "Fuc(a1-2)Gal(b1-4)GlcNAc(b1-3)Gal(b1-4)GlcNAc", "outline": "as §1"}, "[6]": {"biological_target": "Fuc(a1-2)Gal(b1-4)GlcNAc(b1-3)Gal(b1-4)GlcNAc(b1-2)Man(a1-3)[Fuc(a1-2)Gal(b1-4)GlcNAc(b1-3)Gal(b1-4)GlcNAc(b1-2)Man(a1-6)]Man(b1-4)GlcNAc(b1-4)GlcNAc", "outline": "as §1"}, "[7]": {"biological_target": "Fuc(a1-2)Gal(b1-4)GlcNAc(b1-3)Gal(b1-4)GlcNAc(b1-3)Gal(b1-4)GlcNAc", "outline": "as §1"}, "[8]": {"biological_target": "Fuc(a1-2)Gal(b1-4)GlcNAc(b1-3)GalNAc", "outline": "as §1"}, "[9]": {"biological_target": "Fuc(a1-2)Gal(b1-4)GlcNAc(b1-3)[Fuc(a1-2)Gal(b1-4)GlcNAc(b1-6)]GalNAc", "outline": "as §1"}, "[10]": {"biological_target": "Fuc(a1-2)Gal(b1-4)GlcNAc(b1-3)[Fuc(a1-3)[Gal(b1-4)]GlcNAc(b1-6)]Gal(b1-4)Glc", "outline": "as §1"}, "[11]": {"biological_target": "Fuc(a1-2)Gal(b1-4)GlcNAc(b1-6)GalNAc", "outline": "as §1"}, "[12]": {"biological_target": "Fuc(a1-2)Gal(b1-4)GlcNAc6S", "outline": "as §1"}, "[13]": {"biological_target": "Fuc(a1-2)Gal(b1-4)[Fuc(a1-3)]GlcNAc", "outline": "as §1"}, "[14]": {"biological_target": "Fuc(a1-2)Gal(b1-4)[Fuc(a1-3)]GlcNAc(b1-2)Man(a1-3)[Fuc(a1-2)Gal(b1-4)[Fuc(a1-3)]GlcNAc(b1-2)Man(a1-6)]Man(b1-4)GlcNAc(b1-4)[Fuc(a1-6)]GlcNAc", "outline": "as §1"}, "[15]": {"biological_target": "Fuc(a1-2)Gal(b1-4)[Fuc(a1-3)]GlcNAc(b1-2)[Fuc(a1-2)Gal(b1-4)[Fuc(a1-3)]GlcNAc(b1-4)]Man(a1-3)[Fuc(a1-2)Gal(b1-4)[Fuc(a1-3)]GlcNAc(b1-2)Man(a1-6)]Man(b1-4)GlcNAc(b1-4)GlcNAc", "outline": "as §1"}, "[16]": {"biological_target": "Fuc(a1-2)Gal(b1-4)[Fuc(a1-3)]GlcNAc(b1-3)Gal(b1-4)[Fuc(a1-3)]GlcNAc", "outline": "as §1"}, "[17]": {"biological_target": "Fuc(a1-2)Gal(b1-4)[Fuc(a1-3)]GlcNAc(b1-3)Gal(b1-4)[Fuc(a1-3)]GlcNAc(b1-3)Gal(b1-4)[Fuc(a1-3)]GlcNAc", "outline": "as §1"}, "[18]": {"biological_target": "Fuc(a1-2)Gal(b1-4)[Fuc(a1-3)]GlcNAc(b1-3)GalNAc", "outline": "as §1"}, "[19]": {"biological_target": "Fuc(a1-2)Gal(b1-4)[Fuc(a1-3)]GlcNAc(b1-3)[Neu5Ac(a2-6)Gal(b1-4)GlcNAc(b1-6)]Gal(b1-4)Glc", "outline": "as §1"}, "[20]": {"biological_target": "Fuc(a1-2)Gal3S(b1-4)GlcNAc", "outline": "as §1"}}, "note": "This is one part of the list.", "data": [{"binder": "B1", "values": [{"measurement": "glycan array binding signal (z-score)", "setting": "Fuc(a1-2)Gal(b1-4)Glc", "result": -0.039}, {"measurement": "glycan array binding signal (z-score)", "setting": "Fuc(a1-2)Gal(b1-4)Glc6S", "result": 1.38}, {"measurement": "glycan array binding signal (z-score)", "setting": "Fuc(a1-2)Gal(b1-4)GlcNAc", "result": -0.152}, {"measurement": "glycan array binding signal (z-score)", "setting": "[1]", "result": -0.338}, {"measurement": "glycan array binding signal (z-score)", "setting": "[2]", "result": -0.015}, {"measurement": "glycan array binding signal (z-score)", "setting": "[3]", "result": -0.339}, {"measurement": "glycan array binding signal (z-score)", "setting": "[4]", "result": -0.338}, {"measurement": "glycan array binding signal (z-score)", "setting": "[5]", "result": -0.335}, {"measurement": "glycan array binding signal (z-score)", "setting": "[6]", "result": 0.069}, {"measurement": "glycan array binding signal (z-score)", "setting": "[7]", "result": -0.066}, {"measurement": "glycan array binding signal (z-score)", "setting": "[8]", "result": -0.324}, {"measurement": "glycan array binding signal (z-score)", "setting": "[9]", "result": -0.306}, {"measurement": "glycan array binding signal (z-score)", "setting": "[10]", "result": 1.19}, {"measurement": "glycan array binding signal (z-score)", "setting": "[11]", "result": -0.324}, {"measurement": "glycan array binding signal (z-score)", "setting": "[12]", "result": 1.04}, {"measurement": "glycan array binding signal (z-score)", "setting": "[13]", "result": 1.22}, {"measurement": "glycan array binding signal (z-score)", "setting": "[14]", "result": 0.227}, {"measurement": "glycan array binding signal (z-score)", "setting": "[15]", "result": -0.287}, {"measurement": "glycan array binding signal (z-score)", "setting": "[16]", "result": 2.74}, {"measurement": "glycan array binding signal (z-score)", "setting": "[17]", "result": 1.69}, {"measurement": "glycan array binding signal (z-score)", "setting": "[18]", "result": -0.336}, {"measurement": "glycan array binding signal (z-score)", "setting": "[19]", "result": 0.503}, {"measurement": "glycan array binding signal (z-score)", "setting": "[20]", "result": -0.157}]}]}
